The whole screen tested about 48,000 compounds, of which about 1,200 (2.5%) were called active. Roughly 2% stayed inconclusive and do not appear here.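 The calls were made as follows: active = activation of at least 60% and not above a set upper limit (about 1 call in 100 departs from these limits); inconclusive = activation of 40% to 60%, or above that upper limit; inactive = activation under 40%.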 Some of the results follow.

This test has as its target Probable G-protein coupled receptor 32 (Homo sapiens) (UniProt O75388). The experiment in a line: qHTS for Agonists of Human Resolvin D1 Receptor DRV1. The conditions noted are these: CHO-K1 GPR32 beta-arrestin PathHunter luminescence, 90 min; at 76.9 µM; active compounds read high; zero percent set by DMSO-only wells. Summed up: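 Beta-arrestin recruitment read-out: luminescence from complemented beta-Gal in CHO-K1 GPR32 PathHunter cells, measured 1 h after detection reagent at ambient temperature following 90 min compound exposure at 37 °C; DMSO served as basal (EC0) control.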
Sequence of UniProt O75388 (O75388 whole entry, looked up): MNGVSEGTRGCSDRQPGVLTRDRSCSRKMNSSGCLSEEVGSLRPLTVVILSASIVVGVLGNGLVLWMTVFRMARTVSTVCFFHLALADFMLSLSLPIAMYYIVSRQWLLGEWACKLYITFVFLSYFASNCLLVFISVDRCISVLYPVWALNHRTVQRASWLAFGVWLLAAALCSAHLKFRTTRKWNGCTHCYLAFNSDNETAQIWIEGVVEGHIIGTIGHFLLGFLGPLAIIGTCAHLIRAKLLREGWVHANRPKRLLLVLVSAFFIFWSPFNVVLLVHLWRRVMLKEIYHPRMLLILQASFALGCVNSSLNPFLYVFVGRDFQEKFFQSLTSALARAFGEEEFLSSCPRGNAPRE
As for `COc1ccc(C2C(=O)N(C3CCCCC3)CC(=O)N2C2CCCCC2)cc1` (stereo not drawn), the activation was inactive: 0.311%.
Then `COc1cccc(CNC(=O)CN2C(=O)CSc3ccc(S(=O)(=O)N4CCCC4)cc32)c1`, with inactive: -16.4%; and `Cc1cc(C)c(NC(=O)CN2C(=O)CCSc3ccc(S(=O)(=O)N4CCCC4)cc32)c(C)c1`, with inactive: -5.47%; and `COCCn1c(C)cc(O)c(C(c2ccc(Cl)cc2)N2CCCCC2)c1=O` (stereo not drawn), with inactive: -11%.
Then `CCN(Cc1ccccc1)C(=O)C(CC(C)C)NS(=O)(=O)c1ccc2c(c1)CCN2C(C)=O` (stereo not drawn), with inactive: -3.31%.
Next, `O=C(c1ccccc1)N1CCCCC1CCN1CCCCC1` (stereo not drawn): inactive: -2.44%; `O=C(Nc1ccc2nc(SCC(=O)N3CCOCC3)sc2c1)c1ccc(Cl)cc1`: inactive: 34%.
For `Cc1ccc(-n2c(=O)c3ccccc3n(CC(=O)Nc3cccc(C(F)(F)F)c3)c2=O)cc1`, the activation is inactive: -7.64%.
Turning to `Cc1cccc(N2CCN(C(=O)c3nn(C)c4c3CS(=O)(=O)c3ccccc3-4)CC2C)c1` (stereo not drawn), the activation was inactive: 4.51%.
Then `O=C(Cn1c(=O)n(-c2ccccc2)c(=O)c2sc3ccccc3c21)NC1CCCC1`, with inactive: -5.1%.
Regarding `N#C/C(=C\c1ccc(Cl)cc1)c1nc(-c2cc3c(ccc4ccccc43)oc2=O)cs1`, the activation was inactive: 10.9%.
Next, `O=C(CN1C(=O)CC(c2ccc(F)cc2)=Nc2ccccc21)NCc1ccccc1Cl`: inactive: -17.2%; `CN(C1CCCCC1)S(=O)(=O)c1ccc2c(c1)c(=O)c(C(=O)NCc1ccc(Cl)cc1)cn2C`: inactive: 1.6%.
In the case of `COc1cccc(N2CCN(c3ncnc4onc(-c5ccc(Cl)cc5)c34)CC2)c1`, the activation was inactive: -22.8%.
Next, `Cc1ccc(C)c(Nc2nn3c(=O)c4ccc(C(=O)NCc5cccs5)cc4nc3s2)c1`: inactive: 10.1%; `Cc1cccc(NC(=O)c2c(N)sc3c2CCC(C)C3)c1` (stereo not drawn): inactive: 6.05%.
Next, `COc1ccc(-c2cccc(NS(=O)(=O)c3cc(C)ccc3OC)c2)nn1`: inactive: 4.19%.
Consider `CCc1cccc(C)c1NS(=O)(=O)c1ccc(-c2cc(C)no2)s1`, for which the activation was inactive: -6.22%.
Regarding `COc1ccc(C(=O)NCC(c2ccco2)S(=O)(=O)c2cccs2)cc1` (stereo not drawn), the activation was inactive: -3.78%.
With `N#Cc1nc(/C=C/c2ccc(F)cc2)oc1NC1CCCCC1`, the activation is inactive: -7.51%.
On to `O=C(Nc1ccc2nn(-c3ccc(Cl)cc3)nc2c1)c1cc2ccccc2o1`, for which the activation was inactive: -23%.
Then `Cc1ccccc1Nc1c(-c2ccc(N3CCOCC3)cc2)nc2ccc(Cl)cn12`, with inactive: -23%.
Next, `Cc1ccccc1NC(=O)c1c(NC(=O)c2cccs2)sc2c1CCC(C)C2` (stereo not drawn): inactive: -12.3%; `Cn1c(=O)n(C)c2cc(N3CCCCC3)c(NC(=O)c3c(F)cccc3F)cc21`: active: 118%; `Cc1ccc(OCc2cc(=O)n3ccsc3n2)c(NC(=O)c2ccco2)c1`: inactive: -2.58%.
With `COc1ccc(N(C)C(=O)C2CCN(S(=O)(=O)c3cc(Br)cc4c3N(C(C)=O)CC4)CC2)cc1`, the activation was inactive: -5.53%.
Next, `COc1ccc(-c2nc3cc(NC(=O)c4cc5ccccc5o4)ccc3o2)cc1`: inactive: 11.4%.
Consider `Cc1c(F)cc2c(=O)c(C(=O)O)cn3c2c1CCC3C` (stereo not drawn), for which the activation was inactive: -12.3%.
As to `CCOC(=O)c1cc(-c2ccccc2)n(CCC(=O)NCCc2ccc(OC)c(OC)c2)c1C`, the activation was inactive: -27.8%.
Next, `Cc1ccn2c(Nc3ccccc3C)c(-c3ccccc3)nc2c1`: inactive: -5.62%; `Cc1ccc(NCc2cccn2-c2nnc(N3CCC(C(=O)NCc4ccc(F)cc4)CC3)s2)cc1`: inactive: -21.6%; `CCn1ccc2cc(S(=O)(=O)N3CCC(C(=O)NCc4ccc(F)cc4)CC3)ccc21`: inactive: 21.4%.
Next, `Cc1cccc(OCC(=O)Nc2ccccc2OCc2cc(=O)n3cc(C)ccc3n2)c1`: inactive: -6.87%; `Cc1ccc(NC(=O)CSc2nnc(COc3ccc(Cl)cc3)o2)c(C)c1`: inactive: 23.1%; `O=C(Nc1ccc2nc(SCC(=O)N3CCOCC3)sc2c1)c1ccccc1Cl`: inactive: -2.2%.
Next, `O=C(Cn1c(=O)n2nc(-c3cccc(F)c3)nc2c2ccccc21)NCc1ccc(Cl)cc1`: inactive: 21.7%; `COc1cccc(NC(=O)Cn2c(=O)n(Cc3ccco3)c(=O)c3cc(OC)c(OC)cc32)c1`: active: 74%; `CNC(=O)C1CCN(c2nc3ccccc3nc2C(F)(F)F)CC1`: inactive: -6.72%.
On to `O=C(Nc1ccc(C(F)(F)F)cc1)N1CCC(N2CCCCC2)CC1`, for which the activation was inactive: -11.1%.
Then `CCc1ccc(NC(=O)N2CCN(C(=O)c3nsc4ccccc34)CC2)cc1`, with inactive: -4.85%; and `Cc1ccsc1CN1CCc2nc(N3CCN(c4ccccc4F)CC3)ncc2C1`, with inactive: -7.69%.
Then `COc1cc(Cl)c(C)cc1NC(=O)c1cnc2c(-c3cccc(C)c3)c(C)nn2c1C`, with inactive: -14.8%; and `CCOc1ccc(OCC)c(Nc2nc3ccc(Cl)cc3n3cnnc23)c1`, with inactive: -20.6%.
For the compound `COc1cccc(CNC(=O)Cn2c(C)c3cnn(-c4ccccc4)c(=O)c3c2C)c1`, the activation is inactive: -19.2%.
With `CCCN(C(=O)Cn1cc(S(=O)(=O)N2CCN(c3ccccc3F)CC2)c2ccccc2c1=O)c1cccc(C)c1`, the activation is inactive: -3.94%.
With `CC(C)CN(CCNC(=O)c1cc(-c2ccc(Cl)s2)nc2ccccc12)CC(C)C`, the activation was inactive: -11.4%.
Then `CC(C)(C)C(=O)Cn1c(=O)n(-c2ccc(Cl)c(Cl)c2)c(=O)c2c3c(sc21)CCCC3`, with inactive: -2.03%; and `COCc1cc(C)nc2sc(C(=O)Nc3cc(C)ccc3F)c(N)c12`, with inactive: -20.4%; and `Cc1cc(C)cc(N2CCn3c2nc2c3c(=O)n(CCCc3ccccc3)c(=O)n2C)c1`, with inactive: -4.5%.
Then `COc1ccc(CCNC(=O)Cn2cc(C(=O)c3ccc(F)cc3)c(=O)c3ccc(C)nc32)cc1OC`, with inactive: -0.903%; and `Cc1ccc(CNC(=O)CCC(=O)N2CCSc3ccccc32)cc1`, with inactive: -13.4%.
`CN(C(=O)CSc1nnc(-c2ccc([N+](=O)[O-])cc2)o1)c1ccccc1`: the activation is inactive: 33.7%.
Regarding `Cc1ccc(CNC(=O)CCCn2c(=O)c3ccccc3n(Cc3ccc(Cl)cc3)c2=O)cc1`, the activation is inactive: -0.341%.

Source of the values: PubChem BioAssay AID1346428 (National Center for Advancing Translational Sciences (NCATS), 2018).
